We go through 49 compounds from PMC6919601, “Identification of Plasmodium dipeptidyl aminopeptidase allosteric inhibitors by high throughput screening” (PLoS ONE, 2019).

Among all 110,000 compounds or so, about 230 (0.21%) showed an effect of 50% or more. This is one part of the list.
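Note: 30 min substrate incubation versus DMSO and 10 µM JCP410 controls.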

This test deals with DPAP1 (Plasmodium falciparum, UniProt Q8IIJ9). The test is described as follows: primary screen, percent inhibition; read by cleavage of a fluorogenic dipeptide substrate; higher = more effect of the substance. Details: species or system P. falciparum D10 trophozoite lysates; single well.
Chain of DPAP1 (Q8IIJ9 whole entry, looked up): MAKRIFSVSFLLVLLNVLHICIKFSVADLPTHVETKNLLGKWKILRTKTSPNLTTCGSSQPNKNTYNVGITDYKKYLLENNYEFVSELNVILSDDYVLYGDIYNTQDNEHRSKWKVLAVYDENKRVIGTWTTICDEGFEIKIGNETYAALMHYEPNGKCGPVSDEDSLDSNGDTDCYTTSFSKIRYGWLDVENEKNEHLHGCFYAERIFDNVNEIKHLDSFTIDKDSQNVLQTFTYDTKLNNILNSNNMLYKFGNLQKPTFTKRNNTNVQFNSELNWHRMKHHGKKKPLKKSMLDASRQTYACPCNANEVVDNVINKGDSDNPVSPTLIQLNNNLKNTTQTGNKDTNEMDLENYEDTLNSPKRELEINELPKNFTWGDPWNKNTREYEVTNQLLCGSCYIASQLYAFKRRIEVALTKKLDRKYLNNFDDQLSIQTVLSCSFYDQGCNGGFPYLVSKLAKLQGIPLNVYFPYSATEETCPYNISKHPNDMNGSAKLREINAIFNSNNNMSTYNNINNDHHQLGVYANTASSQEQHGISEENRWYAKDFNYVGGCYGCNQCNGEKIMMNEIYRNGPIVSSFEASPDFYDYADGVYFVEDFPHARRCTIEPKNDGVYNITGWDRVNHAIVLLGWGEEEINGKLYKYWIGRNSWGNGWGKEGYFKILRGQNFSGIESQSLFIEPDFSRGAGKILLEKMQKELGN
As to `COCCCNC(=O)c1cnn(-c2ccc(F)cc2)c1C1CCN(C(=O)OC(C)(C)C)CC1`, the “% Inhibition @ 10 uM” value is -2.37%.

`CCC(=O)c1c(C)nc2n(C)c3ccccc3n12`: the “% Inhibition @ 10 uM” value is recorded as -4.98%.

For the compound `COc1ccc(-c2cn3c(C)c(C(=O)Nc4ccncc4)sc3n2)cc1`, the “% Inhibition @ 10 uM” value was -1.89%.

For the compound `Cc1ccc(CN(Cc2ccco2)C(=O)c2ccc(C)cc2)cc1`, the “% Inhibition @ 10 uM” value is -0.45%.

`O=C(Cn1c2ccccc2c2cnnc(O)c21)NCC1CCCO1` (stereo not shown): the “% Inhibition @ 10 uM” value is recorded as 4.55%.

For `O=C(O)CN(CC(=O)O)Cc1c(O)cccc1O`, the “% Inhibition @ 10 uM” value is listed as -4.61%.

In the case of `CC1=C(C(=O)OC2CCCCCCC2)C(c2ccccc2Br)NC(=O)N1` (stereo not shown), the “% Inhibition @ 10 uM” value is 7.05%.

With `CCCOc1cccc(C2C(C(=O)c3ccc(C)o3)=C(O)C(=O)N2c2nc(C)c(C(C)=O)s2)c1` (stereo not shown), the “% Inhibition @ 10 uM” value is reported as 3.29%.

As for `Cn1c(=O)c2c(ncn2CC(=O)Nc2ccccc2C(N)=O)n(C)c1=O`, the “% Inhibition @ 10 uM” value is given as -0.796%.

`Cc1ccc(SC(C)C(=O)NCc2ccco2)cc1` (stereo not shown): the “% Inhibition @ 10 uM” value is reported as 1.87%.

Regarding `O=C(Nc1ccncc1)c1c(O)c2c(n(Cc3ccco3)c1=O)CCCC2`, the “% Inhibition @ 10 uM” value is -2.17%.

For the compound `Cc1c(/C(CC(C)C)=N/O)c2ccccc2n1C`, the “% Inhibition @ 10 uM” value is recorded as -2.51%.

`CSc1nc(C)c2cc(C)oc2n1`: the “% Inhibition @ 10 uM” value is given as -8.01%.

For `COc1ccc(C(=O)O/N=C2/c3ccccc3-c3ncccc32)cc1OC`, the “% Inhibition @ 10 uM” value is on record as -8.95%.

Take `O=C(NCc1ccccc1)C(O)c1ccccc1` (stereo not shown): the “% Inhibition @ 10 uM” value is on record as 4.22%.

Regarding `O=S(=O)(c1cccc(Cl)c1Cl)N1CCOCC1`, the “% Inhibition @ 10 uM” value is -0.771%.

For the compound `CN(C)c1ccc(-c2nc3c(O)ncnc3[nH]2)cc1`, the “% Inhibition @ 10 uM” value is recorded as 16.8%.

For `CCN(CC)C(=O)C1=C(C)N=c2s/c(=C/c3ccc(O)cc3)c(=O)n2C1c1ccccc1OC` (stereo not shown), the “% Inhibition @ 10 uM” value is given as -8.41%.

Regarding `Cc1cccc(-n2nnc(-c3ccccc3)c2N)c1`, the “% Inhibition @ 10 uM” value is on record as -1.85%.

Regarding `CCSc1nc2c(c(=O)[nH]c(=O)n2C)n1CC(O)COc1ccc(CC)cc1` (stereo not shown), the “% Inhibition @ 10 uM” value is reported as 2.08%.

On to `CCOC(=O)c1c(/N=C/c2nc(-c3cccc(OC)c3)oc2O)sc2c1CCCC2`, for which the “% Inhibition @ 10 uM” value is reported as -1.47%.

For the compound `C/C(=N\OCC(=O)Nc1nc2ccccc2s1)c1ccccc1`, the “% Inhibition @ 10 uM” value is -11%.

Turning to `COc1ccc(-c2csc(Nc3ncccc3C)n2)cc1OC`, the “% Inhibition @ 10 uM” value is reported as 3.38%.

For the compound `O=C(c1ccc(Cl)cc1Cl)N1CCCC1`, the “% Inhibition @ 10 uM” value was 2.6%.

With `C=CCSc1nc2c(c(=O)n1C)C1(CCCC1)Cc1ccccc1-2`, the “% Inhibition @ 10 uM” value was 1.42%.

As to `CC1(C)COC(COc2ccc(Cl)cc2)=N1`, the “% Inhibition @ 10 uM” value is listed as -3.8%.

Regarding `O=C(Cn1c(=O)c2cccn2c2cccnc21)NCc1ccco1`, the “% Inhibition @ 10 uM” value was -9.17%.

`Cc1nn(C)c(C(=O)Nc2cccc(CN3CCOCC3)c2)c1Br`: the “% Inhibition @ 10 uM” value is on record as -8.68%.

In the case of `CN1CCN(S(=O)(=O)c2ccc3oc(=O)c4ncn(C)c4c3c2)CC1`, the “% Inhibition @ 10 uM” value is -4.97%.

As for `CCC[C@H](NC(=O)OC(C)(C)C)C(=O)NCC#N`, the “% Inhibition @ 10 uM” value is listed as -6.68%.

For the compound `CC(=O)c1c(C)n(CCc2nc3ccccc3[nH]2)c(C)cc1=O`, the “% Inhibition @ 10 uM” value stood at 2.77%.

Take `CCCC(C)C1C(C#N)=C(N)OC2=C1C(=O)CC(C)(C)C2` (stereo not shown): the “% Inhibition @ 10 uM” value is on record as 2.46%.

For the compound `O=C(C1=C(O)C(=O)N(c2cccnc2)C1c1cccc(F)c1)c1ccccc1` (stereo not shown), the “% Inhibition @ 10 uM” value was -1.02%.

In the case of `CC1(C)CC(=O)c2c(nc(S)c(C#N)c2-c2ccc(Br)cc2)C1`, the “% Inhibition @ 10 uM” value is 2.84%.

As for `O=C(c1ccc(Br)o1)N(Cc1ccccc1)Cc1ccccc1`, the “% Inhibition @ 10 uM” value was -5.51%.

`CC(C)NC(=O)CCCc1cn(C)c2ccccc12`: the “% Inhibition @ 10 uM” value was -1.34%.

As for `COc1cc(OC)c(/C=C2\SC(=O)N(CC(=O)Nc3ccc(C)cc3)C2=O)c(OC)c1`, the “% Inhibition @ 10 uM” value is -1.43%.

As for `Cc1cc(C)nc(NS(=O)(=O)c2ccc(NC(=O)c3ccc(Cl)cc3Cl)cc2)n1`, the “% Inhibition @ 10 uM” value is on record as -0.949%.

Turning to `O=C(CCn1c(=O)c2cccn2c2cccnc21)NCCN1CCOCC1`, the “% Inhibition @ 10 uM” value is listed as -1.86%.

Take `CCCCN(C)c1nc2c(-c3cccc(Br)c3)nnn2c2ccccc12`: the “% Inhibition @ 10 uM” value is listed as -6.85%.

In the case of `Cc1ccccc1CCNC(=O)Cn1nc(C)c2c(C)n(-c3ccccc3)nc2c1=O`, the “% Inhibition @ 10 uM” value worked out at 0.0496%.

Take `CCCS(=O)(=O)N1CCN(S(=O)(=O)c2ccc(OC)cc2)CC1`: the “% Inhibition @ 10 uM” value is recorded as -3.06%.

Consider `CCOc1ccc(N2C(=O)CC(N3CCN(c4ccccc4OC)CC3)C2=O)cc1` (stereo not shown), for which the “% Inhibition @ 10 uM” value came out at 0.709%.

On to `N#Cc1c(-c2ccccc2)cc(-c2ccco2)c(C#N)c1N`, for which the “% Inhibition @ 10 uM” value was 1.54%.

As for `Cc1ccc(N2C(=O)C(NC(=O)C(C)(C)C)(C(F)(F)F)C3=C2CC(C)(C)CC3=O)cc1` (stereo not shown), the “% Inhibition @ 10 uM” value was 3.74%.

For the compound `COCCN1Cc2cccc(C(=O)NCc3ccc(C)cc3)c2C1=O`, the “% Inhibition @ 10 uM” value is -2.29%.

For `COc1ccccc1C(=O)NCCC(C)C`, the “% Inhibition @ 10 uM” value was 1.83%.

Turning to `CC1=C(C(=O)Nc2cccnc2)C(c2cccnc2)n2nc(SCc3ccccc3F)nc2N1` (stereo not shown), the “% Inhibition @ 10 uM” value was 1.52%.

As for `CN(C1CCCCC1)S(=O)(=O)N1CCCC(C(=O)NCc2ccco2)C1` (stereo not shown), the “% Inhibition @ 10 uM” value is -1.97%.
